We go through 172 sequences from paper PMC4242493.

The other results are listed elsewhere or left out. The list includes weakly bound sequences.

For the assay, the target named is MaxL homodimer (UniProt P61244). Briefly: universal protein-binding microarray (PBM). The settings on record: PBS-based mixture, 10 nM His-tagged protein dimer, 2% milk, 200 ng/uL BSA, 50 ng/uL salmon testes DNA, 0.02% TX-100; detection with Alexa 488 anti-His …; high values mean tight binding; most listed sequences are background and not binding sites; double strand, one strand shown.
UniProt P61244, sequence (P61244 whole entry): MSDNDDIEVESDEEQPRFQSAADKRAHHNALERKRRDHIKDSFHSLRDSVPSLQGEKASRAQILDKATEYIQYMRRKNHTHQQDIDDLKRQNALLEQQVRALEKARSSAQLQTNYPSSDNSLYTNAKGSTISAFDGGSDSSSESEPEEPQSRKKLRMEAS
Take GCCCTACA: the binding signal (normalized occupancy) was 0.0744. On to GCGACTTA, for which the binding signal (normalized occupancy) amounted to 0.0716. In the case of TTAGTGAA it was 0.0767; in that of CAAGCGCG, 0.0759. With CGGTACTC, the binding signal (normalized occupancy) amounted to 0.07. Regarding CAGCCCGA, the binding signal (normalized occupancy) is 0.0683. In the case of ATAGGGAT it was 0.0812; in that of CCCAGGCG, 0.0679; in that of CTACCCCA, 0.0788. In the case of CTTTTTCC it was 0.0727.

As for GAATCCAA, the binding signal (normalized occupancy) worked out at 0.0757. The value for AAACATTA was 0.0779.

For the sequence AGCCAAGC, the binding signal (normalized occupancy) was 0.0683. For the sequence ATTAACTC, the binding signal (normalized occupancy) was 0.0796. In the case of CCGACCGC it was 0.0735; in that of GTACTACA, 0.0864. Regarding CATCCAAA, the binding signal (normalized occupancy) is 0.0785.

With AGGCCTTG, the binding signal (normalized occupancy) is 0.0684.

Consider GGAATCGA, for which the binding signal (normalized occupancy) is 0.076. In the case of ATTTGAAA it was 0.0746; in that of ATCGCTAG, 0.0737; in that of ATCTCACC, 0.0821. In the case of AATCACTA it was 0.0729. Take CCAAGCGC: the binding signal (normalized occupancy) is 0.0732. The value for AACAGTAG was 0.0715. Consider GACGGGCC, for which the binding signal (normalized occupancy) was found to be 0.0688.

Regarding ACTAGGGC, the binding signal (normalized occupancy) stood at 0.0695. In the case of TCCAGGAA, the binding signal (normalized occupancy) amounted to 0.0728. GCTATTTA: the binding signal (normalized occupancy) came out at 0.0794. The value for GGCTTAGA was 0.0745; that for GTGAGACA was 0.081; that for CTGACGCA was 0.0694. With GTACAGAC, the binding signal (normalized occupancy) amounted to 0.071. For CATATCAA, the binding signal (normalized occupancy) stood at 0.0794. CGGGAAAA: the binding signal (normalized occupancy) amounted to 0.0693. The value for AGGTAGTA was 0.0777; that for CCGGGTAC was 0.068. In the case of AGTCTTCA it was 0.072. The value for CACGGGCC was 0.0713.

With TAGTGGGA, the binding signal (normalized occupancy) turned out to be 0.0758.

For the sequence CAGCGTCG, the binding signal (normalized occupancy) was found to be 0.0687. CTGGAGAA: the binding signal (normalized occupancy) worked out at 0.0729.

In the case of CCTGGCAA, the binding signal (normalized occupancy) came to 0.0698.

AGTCCCAG: the binding signal (normalized occupancy) was found to be 0.065. The value for CAGTGCAA was 0.0734; that for AAGTGCCA was 0.0704. As for AGCGGCGC, the binding signal (normalized occupancy) is 0.0631. In the case of CCACGCGG it was 0.32; in that of AGCCCGCG, 0.0664. In the case of GTTTAACA it was 0.0767. In the case of CAGCACAG it was 0.0777; in that of GTACCAGA, 0.0726; in that of AAGGATTG, 0.0755. As to AGCACAAG, the binding signal (normalized occupancy) worked out at 0.0764. In the case of CCAGAGCC it was 0.0683; in that of CGTAAGGC, 0.0753. The value for ATCCTTAG was 0.0782; that for AAACATGA was 0.0907.

On to AATGCAGC, for which the binding signal (normalized occupancy) worked out at 0.0741.

Consider TAATTTAA, for which the binding signal (normalized occupancy) stood at 0.0709.

Regarding AATCAATC, the binding signal (normalized occupancy) is 0.0773. The value for CCCAGACC was 0.0702; that for ATTTTGCC was 0.0766.

In the case of TATGGACA, the binding signal (normalized occupancy) stood at 0.0795.

Take GCTTATAA: the binding signal (normalized occupancy) worked out at 0.0807. Regarding ATCCTGTA, the binding signal (normalized occupancy) turned out to be 0.0755. In the case of AGTAGTCC it was 0.0718. In the case of ACTACAAG it was 0.0738; in that of GGTATATA, 0.0866. In the case of ATCACTAA it was 0.0741; in that of CATTCGCA, 0.078; in that of CAGTAATA, 0.0775. For ACAAGTGA, the binding signal (normalized occupancy) was found to be 0.0764. The value for ATCTAGGA was 0.0759; that for TTCCTCAA was 0.0727. For the sequence GGGTGGGA, the binding signal (normalized occupancy) came out at 0.085. The value for AGGGCTAC was 0.0722; that for GGTTGTCA was 0.0781; that for ATCTCAAA was 0.0786. The value for CCGAAACG was 0.0717; that for ACTCTGTA was 0.0726. In the case of CACTAATG, the binding signal (normalized occupancy) stood at 0.0758.

Regarding CAGCTGGA, the binding signal (normalized occupancy) was determined as 0.0742. The value for AGGCTTTA was 0.0758; that for ATTATAGA was 0.0796. On to AATCTTGG, for which the binding signal (normalized occupancy) was found to be 0.076. The value for AGCGTTGG was 0.0764; that for CCACGATA was 0.0924. Take CAACTGCA: the binding signal (normalized occupancy) amounted to 0.0708.

ACCACGTG: the binding signal (normalized occupancy) was 0.773. Turning to CGACGAAC, the binding signal (normalized occupancy) stood at 0.0697. Regarding CAAACTGG, the binding signal (normalized occupancy) stood at 0.0684. In the case of GAAATTGC it was 0.0727; in that of ATATTAGG, 0.0776.

Take AGCGCACC: the binding signal (normalized occupancy) was determined as 0.0767. The value for GTTCGTGA was 0.0731; that for ACAAGGGA was 0.0765; that for AAATTGGG was 0.0753.

For GAATAATC, the binding signal (normalized occupancy) was found to be 0.0788. In the case of AAAGCTTT it was 0.0728; in that of AGACAATA, 0.0786.

Consider TGGCCCAA, for which the binding signal (normalized occupancy) worked out at 0.0666. In the case of GTTACCAA it was 0.0749. In the case of CTGCAACA it was 0.0801; in that of AGCAGAAA, 0.0744.

Take ATCACTAC: the binding signal (normalized occupancy) is 0.0763. The value for AAGCGAGT was 0.0719; that for CGAGACGA was 0.0694. The value for AGGCGCAA was 0.0697.

As for GGTAAACC, the binding signal (normalized occupancy) worked out at 0.0718.

As for ACTCAATC, the binding signal (normalized occupancy) worked out at 0.0799. Consider ATGTTTGA, for which the binding signal (normalized occupancy) was determined as 0.0849. In the case of GATCTCCC it was 0.0755. In the case of CCTGGCGC it was 0.0669; in that of AGCAATAA, 0.071; in that of ACCGTGAT, 0.0871. In the case of GATAGGCC, the binding signal (normalized occupancy) worked out at 0.0744. On to ATCATCGC, for which the binding signal (normalized occupancy) turned out to be 0.0795. In the case of AACGAGTC it was 0.0781.

For AATACTGG, the binding signal (normalized occupancy) is 0.0767. In the case of CAATATTA it was 0.0746; in that of CACAGAGA, 0.0776; in that of TAAGTGTA, 0.0831. With CCAGCAGA, the binding signal (normalized occupancy) came to 0.0768. In the case of CTTCATAA it was 0.0735; in that of ACAATCGA, 0.0713. In the case of CCTGTTTA it was 0.0713.

As for ATACGACA, the binding signal (normalized occupancy) came to 0.077. The value for ATCGGCTA was 0.0719; that for ACCAAAGC was 0.0689. In the case of GATCTCGA it was 0.0734; in that of GGCCTTCA, 0.0697. The value for ACTGAGAA was 0.0662; that for AAAGGGGT was 0.0753. TATTTTAA: the binding signal (normalized occupancy) worked out at 0.0772. The value for AAGCAACT was 0.0694; that for AACAACCG was 0.0774; that for ACGAACCG was 0.0718.

Turning to CCGGTGGC, the binding signal (normalized occupancy) worked out at 0.0692. In the case of GAATAACA it was 0.0791; in that of CGGCTCAG, 0.065; in that of AGTGCGAA, 0.0743. The value for CAGTACAC was 0.082. In the case of GTAAGGGA it was 0.0762. As for ACGGTGTC, the binding signal (normalized occupancy) was found to be 0.0703. In the case of ATGGGCTA it was 0.0792. The value for TCATATCA was 0.0849; that for ACCCCGAT was 0.0826. The value for CAGATGGG was 0.0837; that for GCGCGTGA was 0.106.

Regarding ACGAAGTG, the binding signal (normalized occupancy) turned out to be 0.0717. The value for GGCCTGCA was 0.0744; that for ATATCCTG was 0.0815; that for AAATCATT was 0.0728.

For CAGTTGAA, the binding signal (normalized occupancy) worked out at 0.0762. The value for AAGGGCAG was 0.0755; that for ATGTCCGC was 0.0798; that for CCAGATGC was 0.0801. The value for ACGTTACG was 0.0758; that for ACCGGAAG was 0.0719; that for GCTCGTCA was 0.0699. The value for GAGGCGCA was 0.0721. On to GCGTGTTA, for which the binding signal (normalized occupancy) came out at 0.101. The value for AGACGAAT was 0.0711; that for TAATCCCA was 0.0868. The value for GCTAGGAC was 0.0694. In the case of AAACTCGC it was 0.069; in that of CGTAGGTA, 0.0732; in that of ACCAGCGG, 0.0693. On to CCTGGGCA, for which the binding signal (normalized occupancy) is 0.0702.

With GGGGACAC, the binding signal (normalized occupancy) was 0.0719. The value for CTCCTTAC was 0.0772.
